# Experimental data reported in a collection of fitness landscapes (doi:10.1016/j.celrep.2020.107928).
# Over roughly 81,000 sequences, “one-hybrid fitness for binding NBS DNA” has its median near -0.1; the highest 2% begin near 0.36. The list shows a part of the results.
# B1: Caulobacter ParB omega fusion; a variant is named by its letters at X, in order, B8GW30 (parent)
# chain: MESVVVGEPGMSEGRRGLGRGLSALLGEVDAAPAQAPGEQLGGSREAPIEILQRNPDQPRRTFREEDLEDLSNSIREKGVLQPILVRPSPDTAGEYQIVAGERAWRAAQRAGLKTVPIMVRELDDLAVLEIGIIENVQRADLNVLEEALSYKVLMEKFERTQENIAQTIGKSXSHVANXMRLLXLPDEVQSYLVSGELTAXHARAIAAAADPVALAKQIIEGGLSVRETEALARKAPNLSAGKSKGGRPPRVKDTDTQALESDLSSVLGLDVSIDHRGSTGTLTITYATLEQLDDLCNRLTRGI
# Variants of: B1
# Test: one-hybrid fitness for binding NBS DNA (the Noc-binding site; scaled: cognate 1, non-cognate 0); higher = stronger binding
# Conditions: with NBS DNA site
# Summary of the method: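 Values were rescaled so that cognate is 1 and non-cognate is 0. Each is a fitness, the log change in a variant's read ratio to wild type from Illumina reads of plasmids before and after selection, with three replicate libraries pooled and variants under 10 reads dropped. Selection of the Caulobacter ParB libraries, four specificity codons randomised, used E. coli USO with a HIS3 reporter, site 19 bp from the promoter, on M9-minus-histidine with 0.1 mM IPTG and 5 mM 3-AT for 48 hours at 37°C.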
row,Variant,one-hybrid fitness for binding NBS DNA
1,APYC,≤ 0.2
2,RMLT,0.347
3,ANHY,≤ 0.2
4,QTCN,≤ 0.2
5,PMVW,≤ 0.2
6,RTMF,≤ 0.2
7,ATAF,≤ 0.2
8,SMHM,≤ 0.2
9,QAIL,≤ 0.2
10,SMSL,≤ 0.2
11,SWTY,≤ 0.2
12,RMIM,≤ 0.2
13,YTIG,≤ 0.2
14,TTKK,≤ 0.2
15,LFFS,≤ 0.2
16,GMVV,≤ 0.2
17,LRLE,≤ 0.2
18,SLAW,≤ 0.2
19,DMPN,≤ 0.2
20,PQML,≤ 0.2
21,AIGL,≤ 0.2
22,CANC,≤ 0.2
23,RAYY,≤ 0.2
24,IWIR,≤ 0.2

row,Variant,one-hybrid fitness for binding NBS DNA
1,PYQL,≤ 0.2
2,RMDM,≤ 0.2
3,LDMR,≤ 0.2
4,IEMC,≤ 0.2
5,ECEG,≤ 0.2
6,HETG,≤ 0.2
7,WANL,≤ 0.2
8,WAFS,≤ 0.2
9,IVAS,≤ 0.2
10,NAKV,≤ 0.2
11,SNQW,≤ 0.2
12,LHPY,≤ 0.2
13,VSEP,≤ 0.2
14,CDCM,≤ 0.2
15,RFEK,≤ 0.2
16,TDCS,≤ 0.2
17,DRCT,≤ 0.2
18,ARHV,≤ 0.2
19,WDPE,≤ 0.2
20,TPDK,≤ 0.2
21,DVRY,≤ 0.2
22,MLRT,≤ 0.2
23,ARPD,≤ 0.2
24,RVMC,≤ 0.2

row,Variant,one-hybrid fitness for binding NBS DNA
1,VSKR,0.201
2,APTT,≤ 0.2
3,QLKS,0.573
4,RLRP,≤ 0.2
5,MGNY,≤ 0.2
6,QTDD,≤ 0.2
7,SNRV,≤ 0.2
8,RDCM,≤ 0.2
9,DGVY,≤ 0.2
10,VTCG,≤ 0.2
11,PHHI,≤ 0.2
12,NLLV,≤ 0.2
13,KVEH,≤ 0.2
14,KCVR,≤ 0.2
15,MYVR,≤ 0.2
16,QDCF,≤ 0.2
17,MYKY,≤ 0.2
18,CCLG,≤ 0.2
19,RIEG,≤ 0.2
20,CHAD,≤ 0.2
21,VSYT,≤ 0.2
22,FHSR,≤ 0.2
23,RQEG,≤ 0.2
24,VLLV,≤ 0.2

row,Variant,one-hybrid fitness for binding NBS DNA
1,FFAT,≤ 0.2
2,QKTD,≤ 0.2
3,SSRM,≤ 0.2
4,RFSD,≤ 0.2
5,TDGT,≤ 0.2
6,VGNR,≤ 0.2
7,YMNM,≤ 0.2
8,AHPC,≤ 0.2
9,RDLF,≤ 0.2
10,VVHV,≤ 0.2
11,FWSR,≤ 0.2
12,NPSD,≤ 0.2
13,TSMW,≤ 0.2
14,MHFR,≤ 0.2
15,TCYC,≤ 0.2
16,VIHR,≤ 0.2
17,EWHS,≤ 0.2
18,GDHK,≤ 0.2
19,PNVG,≤ 0.2
20,DAIG,≤ 0.2
21,PWFC,≤ 0.2
22,GQTR,≤ 0.2
23,RGMN,≤ 0.2
24,GNYI,≤ 0.2

row,Variant,one-hybrid fitness for binding NBS DNA
1,GTHD,≤ 0.2
2,HRMC,≤ 0.2
3,TYDR,≤ 0.2
4,AVFT,≤ 0.2
5,SWFV,≤ 0.2
6,IDVW,≤ 0.2
7,SGFS,≤ 0.2
8,ELTR,≤ 0.2
9,KQGS,≤ 0.2
10,ACET,≤ 0.2
11,QPLA,≤ 0.2
12,YNKD,≤ 0.2
13,LQMT,≤ 0.2
14,TNRQ,≤ 0.2
15,SDAL,≤ 0.2
16,TNTN,≤ 0.2
17,CPTH,≤ 0.2
18,RINN,≤ 0.2
19,AQQN,≤ 0.2
20,PIIW,≤ 0.2
21,WVWR,≤ 0.2
22,RMKW,≤ 0.2
23,LSPH,≤ 0.2
24,KNRC,≤ 0.2

row,Variant,one-hybrid fitness for binding NBS DNA
1,VTQP,≤ 0.2
2,PIHV,≤ 0.2
3,FLET,≤ 0.2
4,GADD,≤ 0.2
5,NDKM,≤ 0.2
6,CNTG,≤ 0.2
7,AWIS,≤ 0.2
8,DLWK,≤ 0.2
9,QISS,0.228
10,HPHY,≤ 0.2
11,AEYT,≤ 0.2
12,ASMI,≤ 0.2
13,DSYM,≤ 0.2
14,QKSM,≤ 0.2
15,ELSF,≤ 0.2
16,GDNG,≤ 0.2
17,FVRF,≤ 0.2
18,SFCR,≤ 0.2
19,ALRG,≤ 0.2
20,WSYT,≤ 0.2
21,RNSN,≤ 0.2
22,AWDV,≤ 0.2
23,PFLC,≤ 0.2
24,SYLT,≤ 0.2

row,Variant,one-hybrid fitness for binding NBS DNA
1,ARKW,≤ 0.2
2,TMEC,≤ 0.2
3,STDW,≤ 0.2
4,QCWF,≤ 0.2
5,RPSD,≤ 0.2
6,RNVC,≤ 0.2
7,QGPN,≤ 0.2
8,TGRW,≤ 0.2
9,EACC,≤ 0.2
10,HYSC,≤ 0.2
11,RTFD,≤ 0.2
12,MHNG,≤ 0.2
13,TNNL,≤ 0.2
14,QSND,≤ 0.2
15,YHTS,≤ 0.2
16,HHAP,≤ 0.2
17,PADS,≤ 0.2
18,VRVA,≤ 0.2
19,GPCM,≤ 0.2
20,KCEF,≤ 0.2
21,VKTL,≤ 0.2
22,IVLP,≤ 0.2
23,PVAD,≤ 0.2
24,LSQT,≤ 0.2

row,Variant,one-hybrid fitness for binding NBS DNA
1,NRCT,≤ 0.2
2,AANV,≤ 0.2
3,DPAQ,≤ 0.2
4,PAGA,≤ 0.2
5,EMGR,≤ 0.2
6,MTQV,≤ 0.2
7,TLMA,≤ 0.2
8,QTLV,≤ 0.2
9,MRSW,≤ 0.2
10,LFGL,≤ 0.2
11,TRKA,0.345
12,KPKG,≤ 0.2
13,TETL,≤ 0.2
14,LKRT,≤ 0.2
15,NRDV,≤ 0.2
16,CEKR,≤ 0.2
17,AMER,≤ 0.2
18,TLER,≤ 0.2
19,RQMQ,≤ 0.2
20,PDKR,≤ 0.2
21,SRMA,≤ 0.2
22,SNTT,≤ 0.2
23,PIIG,≤ 0.2
24,PIIC,≤ 0.2

row,Variant,one-hybrid fitness for binding NBS DNA
1,RKQS,0.543
2,HNYS,≤ 0.2
3,CIMG,≤ 0.2
4,LQRE,≤ 0.2
5,CMYG,≤ 0.2
6,VCTF,≤ 0.2
7,IKRS,≤ 0.2
8,HIMC,≤ 0.2
9,EKNL,≤ 0.2
10,CHGS,≤ 0.2
11,NITR,≤ 0.2
12,LNHS,≤ 0.2
13,RHSW,≤ 0.2
14,GFHC,≤ 0.2
15,EQYG,≤ 0.2
16,NMHW,≤ 0.2
17,VNRL,≤ 0.2
18,MHVR,≤ 0.2
19,ASNC,≤ 0.2
20,IYMV,≤ 0.2
21,TSLK,≤ 0.2
22,SMIT,≤ 0.2
23,QDFR,≤ 0.2
24,NAPS,≤ 0.2

row,Variant,one-hybrid fitness for binding NBS DNA
1,FLGN,≤ 0.2
2,ADDC,≤ 0.2
3,GFRY,≤ 0.2
4,PCFE,≤ 0.2
5,DHVR,≤ 0.2
6,HNRV,≤ 0.2
7,PSYM,≤ 0.2
8,DITS,≤ 0.2
9,SFHW,≤ 0.2
10,CGGT,≤ 0.2
11,HVHR,≤ 0.2
12,DPMY,≤ 0.2
13,TNGC,≤ 0.2
14,RTAF,≤ 0.2
15,PVEA,≤ 0.2
16,CIAC,≤ 0.2
17,YGAS,≤ 0.2
18,PTRK,≤ 0.2
19,RDPN,≤ 0.2
20,MIVR,≤ 0.2
21,HIVA,≤ 0.2
22,TQDD,≤ 0.2
23,VRLK,≤ 0.2
24,PLYE,≤ 0.2

row,Variant,one-hybrid fitness for binding NBS DNA
1,ANSL,≤ 0.2
2,VGDL,≤ 0.2
3,TRKT,0.578
4,QIKL,≤ 0.2
5,TPRH,≤ 0.2
6,CPKP,≤ 0.2
7,QFHY,≤ 0.2
8,MMQR,≤ 0.2
9,WTMG,≤ 0.2
10,KLAT,≤ 0.2
11,RQTW,≤ 0.2
12,RKYF,≤ 0.2
13,ISFT,≤ 0.2
14,YPER,≤ 0.2
15,PSDE,≤ 0.2
16,PVCM,≤ 0.2
17,CTGR,≤ 0.2
18,PAAS,≤ 0.2
19,QSCH,≤ 0.2
20,PHGC,≤ 0.2
21,TPTE,≤ 0.2
22,TAPC,≤ 0.2
23,SAIQ,≤ 0.2
24,PCSC,≤ 0.2

row,Variant,one-hybrid fitness for binding NBS DNA
1,RRQF,0.221
2,DGSS,≤ 0.2
3,CMNW,≤ 0.2
4,AVRV,≤ 0.2
5,NQHA,≤ 0.2
6,NKDS,≤ 0.2
7,MFRT,≤ 0.2
8,TMEW,≤ 0.2
9,RSAW,≤ 0.2
10,WAHL,≤ 0.2
11,DEPA,≤ 0.2
12,DQSQ,≤ 0.2
13,SRKW,≤ 0.2
14,NEST,≤ 0.2
15,RYPQ,≤ 0.2
16,MGSG,≤ 0.2
17,NTKY,≤ 0.2
18,RADW,≤ 0.2
19,TVQG,≤ 0.2
20,VVLH,≤ 0.2
21,QNFE,≤ 0.2
22,YYKE,≤ 0.2
23,SNMS,≤ 0.2
24,VPVT,≤ 0.2

row,Variant,one-hybrid fitness for binding NBS DNA
1,CMKE,≤ 0.2
2,TVVR,≤ 0.2
3,MWMR,≤ 0.2
4,KCLN,≤ 0.2
5,LIMS,≤ 0.2
6,RGKY,≤ 0.2
7,QFWG,≤ 0.2
8,YQQR,≤ 0.2
9,SQRT,≤ 0.2
10,TLAA,≤ 0.2
11,MPDQ,≤ 0.2
12,CMCG,≤ 0.2
13,MFQS,≤ 0.2
14,YMYS,≤ 0.2
15,APGA,≤ 0.2
16,VYHG,≤ 0.2
17,DKCG,≤ 0.2
18,IPQK,≤ 0.2
